Experimental data: publication PMC12136788
This is one part of the list.

B1: chr1:226361101:226361261:-|3pUTR|ENSG00000143799|msi1|total|mutant (ssRNA)
RNA: GGGAGUUCUACAGUCCGACGAUCUUUCUUGCCAGGCCGAUAAAACUGACACCGAGAAAAGGCUGGAGAGAGAUUCUGUUGCACCGACCCGUCCUAUGGAAAAAACCAAGCUUCGUCCGAAUGUCUGCCUUACUGGUUUCCCCACAACAGAGGAUUGAGCAUCA
B2: ENSG00000123983:stop:overlap|stop_codon|ENSG00000123983|stop_codon|NA|stop_codon (ssRNA)
RNA: GGGAGUUCUACAGUCCGACGAUCGUGAUGCCAGACGUUUUUUUGGGUGUGGGACUACAAUACUGGCAGAGUGGGAGCACCAUUAGUUUGCUGUGAAAUCAAAUUAAAAAACUGGGAGGAAGGUGGAUACUUUAAUACUGAUAACAACAGAGGAUUGAGCAUCA
B3: chr11:62752106:62752207:-|CDS|ENSG00000185670|msi1|FALSE|unique (ssRNA)
RNA: GGGAGUUCUACAGUCCGACGAUCGGCUCACAAUGAGGACCUGGCCAAACGCAGCAAACCAGAUCCAGAAGUGGGACCCCUUCUAGGGGUGCAGCCUCUCCCUGGCUCCCCAACAGCAGACAGACAGAGCAGCAGUGGUGGAGGCAACAGAGGAUUGAGCAUCA
B4: ENSG00000198589:be:win_3151|CDS|ENSG00000198589|bound_else_gene|NA|bound_elsewhere_windowed (ssRNA)
RNA: GGGAGUUCUACAGUCCGACGAUCUCUUCUGACAUAAUAGAAGCUGUGGCUAUUUCCUCUAAUUCUUUUAUAACAACUGGCAAAGAUUCAAUGACUGUCAGUGAAGUAACUGCUUCUAUAAGUUCUCCUUCAGAAGAGGAUGCCCAACAGAGGAUUGAGCAUCA
B5: chr11:61799969:61800070:-|3pUTR|ENSG00000149485|msi1|total|mutant (ssRNA)
RNA: GGGAGUUCUACAGUCCGACGAUCUUCUUUGCCACCUUUUGGGUGUGGUGUCACCAGCCUGUUCCGCCAAGCCGCUUUGGGCACCGGCUGCCCAAUCUGAGCAAACACCAGUGAGGCUCUAUUGAGCCAAGACCAAGUCCUCAACAACAGAGGAUUGAGCAUCA
B6: chr6:57184343:57184440:+|3pUTR|ENSG00000112208|msi1_unk|total|mutant (ssRNA)
RNA: GGGAGUUCUACAGUCCGACGAUCUCUUCAGUUUUGUGAAUAACAAAACCCGCAAUAUUUUAAUUAUCUAUCCCGAGAUUUUUCCGAUUGAAUUCUUGUCUUGUACCCGGAUCCCGCAUAUUUCACUAUUCUGUGGAUGAAUACCAACAGAGGAUUGAGCAUCA
B7: chr12:29502561:29502662:-|3pUTR|ENSG00000133687|msi1|FALSE|unique (ssRNA)
RNA: GGGAGUUCUACAGUCCGACGAUCUCUUAACAAUGAUGUAUGGCACAAUUGGUUGGUUGAGGCUAUCAUUCCAUGAUUACAAAUAGGUGGUUAUGUGGGGUGGUUUUGCACUUGUGGCAAUUGGACUGCAAUUUGGCCUUAAAACAACAGAGGAUUGAGCAUCA
B8: chr19:42216679:42217007:-|CDS|ENSG00000160570|control|control|control (ssRNA)
RNA: GGGAGUUCUACAGUCCGACGAUCCUUUCUGCUGGAUGAGGCUCCUGGCGCCGCCGGAGGCUUAGCCCGGGCCCGCAGCGGCCUAGAGCUCCUGCUGGAGCUGGAGCGCCGCGGGCAGUGCGACGAGAGCAACCUGCGGCUGCUCAACAGAGGAUUGAGCAUCA
B9: chr10:103289619:103289731:+|3pUTR|ENSG00000148798|unk|FALSE|unique (ssRNA)
RNA: GGGAGUUCUACAGUCCGACGAUCAUGAGUGGAAAAAGCCAAGGUGUCAUUUAUGUGUCAGUUCAUUUGUGGUGAUAUAGAAUUAGCUUUUUCAUCCCCUUACCCUUAGAAUCCACGUAUUCCCCUUCCCACUAGCCUAGGUCACAACAGAGGAUUGAGCAUCA
B10: chr12:57478539:57478757:-|CDS|ENSG00000123329|control|control|control (ssRNA)
RNA: GGGAGUUCUACAGUCCGACGAUCCUCCCAAGCAGGGCUCAGGCUAGCUCGGAGCAGCCUCCUCCACUUCCCCGCAAAAUGUGUAGGAGCGUCAGCACUGACAAUCUGAGCCCCAGCCUUCUGAAGCCUUUCCAGGAAGGACCACAACAGAGGAUUGAGCAUCA
B11: chrX:152750421:152751363:-|CDS|ENSG00000268606|control|control|control (ssRNA)
RNA: GGGAGUUCUACAGUCCGACGAUCCGACAAUCAGGUCAUGCCCAAGACAGGCCUCCUGAUAAUCGUCCUGGCCAUAAUCGCAAUAGAGGGCGACUGUGCCCCUGAGGAGAAAAUCUGGGAGGAGCUGAGUAUGUUGGAGGUGUUCAACAGAGGAUUGAGCAUCA
B12: ENSG00000070961:be:win_3151|CDS|ENSG00000070961|bound_else_gene|NA|bound_elsewhere_windowed (ssRNA)
RNA: GGGAGUUCUACAGUCCGACGAUCACAUUACUCUGGGGCCAGCUUAUUUCAACAAUUCCAACUAGCCGUUUAAAAUUCCUCAAAGAAGCUGGUCAUGGAACACAAAAGGAAGAAAUACCUGAGGAGGAAUUAGCAGAGGAUGUUCAACAGAGGAUUGAGCAUCA
B13: chr17:10306458:10306629:-|CDS|ENSG00000006788|control|control|control (ssRNA)
RNA: GGGAGUUCUACAGUCCGACGAUCCCACCUGGAGCGGAUGAAGAAGAACCUGGAGCAGACGGUGAAGGACCUGCAGCACCGUCUAGAUGAGGCUGAACAACUGGCGCUGAAGGGCGGGAAGAAGCAGAUCCAGAAACUGGAGAACAACAGAGGAUUGAGCAUCA
B14: chr2:227551976:227552087:+|CDS|ENSG00000173744|unk|total|mutant (ssRNA)
RNA: GGGAGUUCUACAGUCCGACGAUCUCCAUGAGCAUGCCCACAGGAUUCGGCACUCCUGCUCCCUACAGUCUUCCCACCAGCUUCCGUGGCAGCUUUCAGCAGCCUGCCUUUCCAGCCCAAGCAGCUUUCCCUCAACAGACAGCUCAACAGAGGAUUGAGCAUCA
B15: chr15:42211119:42211220:-|3pUTR|ENSG00000103978|unk|FALSE|unique (ssRNA)
RNA: GGGAGUUCUACAGUCCGACGAUCAGGUUACAUCUUGCAGAGGUUGUUUUGAGAAAAAAGGGCCCUUCUGAGUUAAGGAGCCAUAGUUCUAUCAAUGAUCAAAAGAAAAAAAAAAAAAGAGAAACUGUUACAGUAUGAUUCAGACAACAGAGGAUUGAGCAUCA
B16: chr17:41167230:41167584:-|three_prime_utr|ENSG00000196156|control|control|control (ssRNA)
RNA: GGGAGUUCUACAGUCCGACGAUCAUGUGGACUUCCUGAUGUCGUGAAAACAGAGGCAUGGACUGAUUUGGAAAAUAUUUUAUUAGUAUGUAUUCUCUUUUAUAGAAGUUUUUAUUCCUAUUGAAUCUGAAUUUACAGUCAAAUCAACAGAGGAUUGAGCAUCA
B17: chr13:39012690:39014476:-|CDS|ENSG00000120685|control|control|control (ssRNA)
RNA: GGGAGUUCUACAGUCCGACGAUCCCAGGGUCAUUAAUAGCCACCUCAUCUACCGCUGCCACCUCCACAUCUCUCCCUCAUCCUAGCUCAACGGCAGCUGUUCUCUCAGGGCUUUCUGCUUCAGCACCAGUCUCAGCAGCACCUCAACAGAGGAUUGAGCAUCA
B18: chr7:123541454:123541562:-|3pUTR|ENSG00000128609|unk|FALSE|unique (ssRNA)
RNA: GGGAGUUCUACAGUCCGACGAUCUCCAUAGUGUCAUUUUAUUUUAGUCAUUAUUGAAUUAUACCAUUUACUCUGUUUUCUUAUAGUCUUAAUUUUAUUAUAUUUUGUUGUUACUGUAUUAUAUUUGAAAACCUUCAAAUUAGACAACAGAGGAUUGAGCAUCA
B19: chr16:3022182:3022332:+|3pUTR|ENSG00000006327|msi1|FALSE|unique (ssRNA)
RNA: GGGAGUUCUACAGUCCGACGAUCCCACGGGGGUCACCCUGGGGGGUUAGGGACCUAUUUUUAACACUAGGGGGCUGGCCCACUAGGAGGGCUGGCCCUAAGAUACAGACCCCCCCAACUCCCCAAAGCGGGGAGGAGAUAUUUCAACAGAGGAUUGAGCAUCA
B20: chr1:235448940:235449205:-|3pUTR|ENSG00000162885|unk|total|mutant (ssRNA)
RNA: GGGAGUUCUACAGUCCGACGAUCAACCGAGAAUUCCAUUAAAACCCGUCUUAUGACAGAUAUUAACUGUGUUCAGAUUUUAUCCGGCCCGCCCGUUUCUUUCUAUUUAAUAUUUAAAUCUUAUCAUGAAAUGCAGUGAUGAGCCAACAGAGGAUUGAGCAUCA
B21: chr10:43183422:43183523:+|CDS|ENSG00000169826|msi1|total|mutant (ssRNA)
RNA: GGGAGUUCUACAGUCCGACGAUCUAAAGCCAUGAAUGAGGCCUCUCACUCCCACCUGGGAAUGCUGGUCUUCAGGGAGGAAACCGAGACGCAUCUUCAUAAACAGGCAUACAGGACAAACAGUGAAGCUGUUGGUUGAAAUCACAACAGAGGAUUGAGCAUCA
B22: chr2:70277881:70277982:+|3pUTR|ENSG00000116005|msi1|total|mutant (ssRNA)
RNA: GGGAGUUCUACAGUCCGACGAUCACCUGAGGGAGAACUUAAAGACAUCUCCGUUGGGGAGCCGUCCUUUUGAAUUUUACAGCCCGAUAUAAUCUUCAGUCAGAUAAAAUUUAUGGGAGCUGGUGUCUUAUGCCUGACUCUCCGCAACAGAGGAUUGAGCAUCA

Biological target: MSI1 full-length (mouse, UniProt Q61474 1-362)
Chain of UniProt Q61474 (Q61474 whole entry): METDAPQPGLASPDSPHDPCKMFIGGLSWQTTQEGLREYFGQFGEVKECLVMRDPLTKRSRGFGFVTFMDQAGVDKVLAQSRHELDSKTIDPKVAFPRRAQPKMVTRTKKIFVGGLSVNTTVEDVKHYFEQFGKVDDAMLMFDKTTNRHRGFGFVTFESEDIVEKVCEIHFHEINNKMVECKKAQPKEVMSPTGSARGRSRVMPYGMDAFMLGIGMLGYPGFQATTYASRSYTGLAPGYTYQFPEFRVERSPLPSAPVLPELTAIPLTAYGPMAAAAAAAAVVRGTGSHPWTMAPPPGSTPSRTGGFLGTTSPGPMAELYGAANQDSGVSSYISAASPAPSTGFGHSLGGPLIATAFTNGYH
Assay: nsRBNS (natural sequence RNA bind-n-seq); RBNS binding buffer (assumed for nsRBNS): 25 mM Tris pH 7.5, 150 mM KCl, 3 mM MgCl2, 0.01% Triton X-100, 500 ug/ml BSA, 20 U/ml SUPERase-In, 4 C; UNK is unkempt and MSI1 is Musashi-1; names of the RNAs are library labels; protein concentration not given here; high values mean tight binding

| Binder | binding signal |
| --- | --- |
| B1 | 0.355 enrichment R |
| B2 | 1.68 enrichment R |
| B3 | 0.525 enrichment R |
| B4 | 0.411 enrichment R |
| B5 | 0.369 enrichment R |
| B6 | 0.54 enrichment R |
| B7 | 0.41 enrichment R |
| B8 | 0.233 enrichment R |
| B9 | 4.28 enrichment R |
| B10 | 0.402 enrichment R |
| B11 | 0.462 enrichment R |
| B12 | 0.641 enrichment R |
| B13 | 0.485 enrichment R |
| B14 | 0.733 enrichment R |
| B15 | 0.66 enrichment R |
| B16 | 7.66 enrichment R |
| B17 | 1.16 enrichment R |
| B18 | 42.9 enrichment R |
| B19 | 2.35 enrichment R |
| B20 | 1.57 enrichment R |
| B21 | 0.376 enrichment R |
| B22 | 0.34 enrichment R |
